The campaign covered roughly 310,000 compounds. About 14,000 (4.5%) showed an effect of 50% or more. Effects have a minus sign here. Some of the results follow.
target: human ether-à-go-go-related gene (hERG) potassium channel (human, UniProt Q12809); assay: primary screen, population patch clamp on CHO cells stably expressing hERG
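Also: peak tail current of the secondary pulse compared with the same well before compound.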

human ether-à-go-go-related gene (hERG) potassium channel, sequence (Q12809 whole entry, looked up): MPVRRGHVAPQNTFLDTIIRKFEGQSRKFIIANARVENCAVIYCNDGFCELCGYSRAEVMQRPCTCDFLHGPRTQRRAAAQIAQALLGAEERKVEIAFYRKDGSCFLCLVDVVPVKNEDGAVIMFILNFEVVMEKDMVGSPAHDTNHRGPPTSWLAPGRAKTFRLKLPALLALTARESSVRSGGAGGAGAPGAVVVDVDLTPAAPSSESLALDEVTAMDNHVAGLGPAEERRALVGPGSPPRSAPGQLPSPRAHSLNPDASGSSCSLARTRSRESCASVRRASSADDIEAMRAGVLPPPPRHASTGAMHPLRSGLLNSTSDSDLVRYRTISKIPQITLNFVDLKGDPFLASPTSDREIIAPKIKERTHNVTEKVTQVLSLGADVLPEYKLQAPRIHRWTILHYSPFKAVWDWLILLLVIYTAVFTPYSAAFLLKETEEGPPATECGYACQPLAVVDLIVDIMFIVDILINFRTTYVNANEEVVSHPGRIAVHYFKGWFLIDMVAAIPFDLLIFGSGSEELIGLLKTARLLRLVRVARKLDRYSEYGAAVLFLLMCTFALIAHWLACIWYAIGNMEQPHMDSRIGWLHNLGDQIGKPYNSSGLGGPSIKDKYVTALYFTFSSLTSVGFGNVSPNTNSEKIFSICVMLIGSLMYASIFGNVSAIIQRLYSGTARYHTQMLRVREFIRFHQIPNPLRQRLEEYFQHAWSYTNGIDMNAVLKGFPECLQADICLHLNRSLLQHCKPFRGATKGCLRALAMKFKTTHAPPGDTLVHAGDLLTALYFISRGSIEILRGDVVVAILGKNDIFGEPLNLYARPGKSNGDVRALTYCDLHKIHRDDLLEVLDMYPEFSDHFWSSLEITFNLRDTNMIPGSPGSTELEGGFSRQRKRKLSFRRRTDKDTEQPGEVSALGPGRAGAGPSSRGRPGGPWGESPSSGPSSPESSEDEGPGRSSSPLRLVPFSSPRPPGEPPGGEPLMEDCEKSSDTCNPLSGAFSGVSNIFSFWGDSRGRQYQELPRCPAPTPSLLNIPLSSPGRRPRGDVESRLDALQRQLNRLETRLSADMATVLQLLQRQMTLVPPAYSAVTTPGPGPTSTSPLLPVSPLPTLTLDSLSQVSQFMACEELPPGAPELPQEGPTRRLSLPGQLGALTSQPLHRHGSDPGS

SMILES | hERG current change (%, negative = inhibition) at 10uM [%]
COc1ccc(N2CC(C(=O)N3CCc4ccccc43)CC2=O)cc1 (stereo not shown) | -23.6
O=c1cc(N2CCN(c3ccc(F)cc3)CC2)[nH]c(=O)n1Cc1ccc(F)cc1 | -8.76
COc1ccc(S(=O)(=O)NCCCN2CCOCC2)c2ccccc12 | -5.22
CC1CCCN(S(=O)(=O)c2ccc(NC(=O)CNC3CCCC3)cc2)C1 (stereo not shown) | 4.64
O=C(O)CC12CC3CC(C1)CC(n1ncc(N4CCC5(CC4)OCCO5)c(Cl)c1=O)(C3)C2 | 10.2
O=[N+]([O-])c1cc(Cc2ccccc2)cc(C=Nc2ccc(N3CCOCC3)cc2)c1O | 12.1
O=C(Nc1ccccc1Cl)NC1(C(=O)N2CCOCC2)CCCCC1 | 17.5
CCCc1nn(-c2cc(Cl)ccc2OC)c2c1C(=O)CC(C)(C)C2 | -21
CC(C)CCN(CCC(C)C)C/C(O)=C(\C#N)c1nc(-c2ccccc2)cs1 | -8.81
CCOC(=O)c1cnn(-c2nc(C)cc(C)n2)c1N | -13.2
O=C(CCN1C(=O)C2C3CCC(C3)C2C1=O)OCC(=O)c1cccc([N+](=O)[O-])c1 (stereo not shown) | -4.11
O=C(Nc1cccnc1Oc1ccc(Cl)cc1)c1cccc2ccccc12 | 3.61
COc1ccc(-c2noc(CN3CCCCC3)n2)cc1OC | -1.49
O=C(NCc1ccccc1)C1CCN(C(=O)Cc2ccccc2)CC1 | -4.13
Cc1cccc(-n2c(=O)c3ccccc3n3c(=S)[nH]nc23)c1C | 20.4
Cc1nnsc1C(=O)NC1CCCc2c1cnn2-c1ccccc1F (stereo not shown) | 8.75
O=C1COc2ccccc2N1Cc1ccccc1Cl | -45.6
COc1ccc(C(=O)CN2CCN(c3ccc(F)cc3)CC2)cc1OC | -32.2
COC(=O)c1cc(=O)n(Cc2ccccc2)c(=NCc2ccccc2)s1 | 20.1
COc1cc(/C=N/NC(=O)C(=O)NCc2cccnc2)ccc1O | -4.4
Cn1c(=O)c2sccc2n2c(CCCC(=O)N3CCN(c4ccccn4)CC3)nnc12 | -11.1
CCOC(=O)c1c(-c2ccc(-c3ccccc3)cc2)csc1NC(=O)C1C2CCC(O2)C1C(=O)O (stereo not shown) | 7.14
O=C(Nc1ccccc1N1CCCCC1)c1ccc(Cl)cc1 | 12.6
CCn1cc(S(=O)(=O)N2CCN(c3ccc(Cl)cc3)CC2)cn1 | 7.96
COc1cc(NC(=O)c2noc3c2CCC3)c(OC)cc1Cl | 4.4
O=C(Nc1cccc(C(F)(F)F)c1)NC1CCCCC1 | -3.18
CCCCN(C(=O)c1cc(S(=O)(=O)N2CCOCC2)ccc1Cl)c1c(N)n(CC(C)C)c(=O)[nH]c1=O | -10.8
CCc1nnc(NC(=O)c2c(O)c3c([nH]c2=O)CCCC3)s1 | 3.51

SMILES | hERG current change (%, negative = inhibition) at 10uM [%]
c1ccc(CSc2nnnn2-c2cccc3ccccc23)nc1 | -3.49
COc1ccc(C2=NC(C)(C)Cc3cc(OC)c(OC)cc32)cc1 | -44
CCOc1ccc(N(CC(=O)NC2CCCCC2)C(=O)CNC(=O)c2ccco2)cc1 | -21.1
NS(=O)(=O)c1cccc(NC(=O)Cn2cnc3ccccc3c2=O)c1 | 13.3
CCC(C)NC(=O)C1CC(=O)N(CCc2ccc(F)cc2)C1 (stereo not shown) | 15.6
COCCN(C(=O)COC(=O)c1ccc(C)s1)c1c(N)n(Cc2ccccc2)c(=O)[nH]c1=O | -4.41
O=C(c1ccc(S(=O)(=O)NCc2ccco2)cc1)N1CCN(Cc2ccc3c(c2)OCO3)CC1 | -32.5
CC(=O)N1CCN(c2nnnn2-c2ccccc2)CC1 | -2.01
CC(=O)C1=C(O)C(=O)N(c2cccc(Br)c2)C1c1ccc(Br)cc1 (stereo not shown) | 15.8
Cc1cc(N)n(-c2cc(C)c3ccccc3n2)n1 | 5.92
O=C(Nc1ccc2c(c1)CCC2)c1cnn2c1NC(c1ccco1)CC2C(F)(F)F (stereo not shown) | 0.207
Cc1nc(C(C)N(C)Cc2c(C(=O)N3CCCCC3)nc3c(C)cccn23)c(C)s1 (stereo not shown) | -22.7
Nc1nc2ccc(NC(=O)c3ccco3)cc2s1 | 11.7
O=C(CN(c1cccc(C(F)(F)F)c1)S(=O)(=O)c1ccc(Cl)c([N+](=O)[O-])c1)NCc1ccccc1 | -3.26
N#CCC(=O)N/N=C/c1ccc(Cl)cc1 | 8.5
CCN(c1ccc(C(=O)CSc2nnc(C3CC3)n2C2CC2)cc1)S(C)(=O)=O | -6.53
CCN(CC)c1ccc(NC(=O)c2c(C)noc2C)cc1 | 12.3
Cc1ccc(CN2CCCN(Cc3ccccc3C)S2(=O)=O)cc1 | 21.1
Oc1ccc(Cl)cc1-c1cc(-c2cccc(Br)c2)n[nH]1 | 9.52
Cc1c(C(=O)N(Cc2ccccc2Cl)C2CCS(=O)(=O)C2)oc2ccccc12 (stereo not shown) | -9.98
CCOc1ccc(NC(=O)CCC(=O)NNC(=O)Nc2ccc(Cl)cc2)cc1 | 14.9
CCCC1=C(C(=O)OCC)C(c2ccncc2)n2ncnc2N1 (stereo not shown) | -0.902
COC(=O)C1=C(C)NC(=O)NC1c1ccccc1Cl (stereo not shown) | 14.6
CCn1c(SCC(=O)NNC(=S)Nc2ccc(C)cc2)nnc1-c1ccc(Cl)cc1 | -20.4
CCc1ccccc1NC(=O)CN(C)S(=O)(=O)c1ccc(-c2ccc(=O)[nH]n2)s1 | -74.8
CCCc1c(C(=O)N/N=C/c2ccc(OCc3ccccc3)c(OC)c2)nnn1-c1nonc1N | 23.4
COc1ccccc1CNC(=O)c1ccc(CNc2c(N3CCCC3)c(=O)c2=O)cc1 | -4.13
